Experimental data published in the antibiotic and cytotoxicity screens of Wong et al. (2023).
Some of the results follow.

Legend:
HSkMC = human skeletal muscle cells; test: cytotoxicity call (relative viability < 0.9); details: 10 µM
HepG2 = test: cytotoxicity call (relative viability < 0.9); details: 10 µM
S. aureus RN4220 = test: growth inhibition call (relative growth <= 0.2); details: 50 µM

C[C@H](CO)N1C[C@H](C)[C@H](CN(C)Cc2ccc(Cl)c(Cl)c2)Oc2c(NC(=O)NC3CCCCC3)cccc2C1=O
inactive: cytotoxicity call (HSkMC) | cytotoxicity call (HepG2) | growth inhibition call (S. aureus RN4220)

OCCCC1=C[C@H](c2ccc(CN3CCCC3)cc2)N(Cc2cc3c(cc2Br)OCO3)CC1
inactive: cytotoxicity call (HSkMC) | cytotoxicity call (HepG2) | growth inhibition call (S. aureus RN4220)

COc1ccc(CN(C)C[C@H]2Oc3ccc(NS(=O)(=O)c4cn(C)cn4)cc3C(=O)N([C@H](C)CO)C[C@@H]2C)cc1
inactive: cytotoxicity call (HSkMC) | cytotoxicity call (HepG2) | growth inhibition call (S. aureus RN4220)

COc1ccc(NC(=O)Nc2ccc3c(c2)C(=O)N([C@H](C)CO)C[C@H](C)[C@@H](CN(C)C(=O)c2ccccc2)OCCCC[C@H](C)O3)cc1
inactive: cytotoxicity call (HSkMC) | cytotoxicity call (HepG2) | growth inhibition call (S. aureus RN4220)

C[C@H](CO)N1C[C@H](C)[C@H](CN(C)C(=O)CCN2CCCCC2)Oc2ncc(C#Cc3ccccn3)cc2C1=O
inactive: cytotoxicity call (HSkMC) | cytotoxicity call (HepG2) | growth inhibition call (S. aureus RN4220)

Nc1nnc(SCC(=O)NC[C@H]2CCCO2)[nH]1
inactive: cytotoxicity call (HSkMC) | cytotoxicity call (HepG2) | growth inhibition call (S. aureus RN4220)

C[C@H]1CN([C@@H](C)CO)C(=O)c2cc(NS(=O)(=O)c3cn(C)cn3)ccc2O[C@H]1CN(C)Cc1ccc2c(c1)OCO2
inactive: cytotoxicity call (HSkMC) | cytotoxicity call (HepG2) | growth inhibition call (S. aureus RN4220)

NC[C@H](c1ccco1)N1CCCCCC1
inactive: cytotoxicity call (HSkMC) | cytotoxicity call (HepG2) | growth inhibition call (S. aureus RN4220)

Cc1ncc([N+](=O)[O-])n1C[C@@H](C)O
inactive: cytotoxicity call (HSkMC) | cytotoxicity call (HepG2) | growth inhibition call (S. aureus RN4220)
